# Values marked as one replicate rest on one cluster of the flow cell; about a third of the high ones do not repeat.
# Tested on: ATP
# Assay: switch fluorescence ratio, 500 uM ATP over buffer (Cy3 cluster intensity, sum of 5 cycles each) (fold (ratio)); higher = stronger signal-on switching upon ATP binding; sequences stand for … in TCGTCGGCAGCGTCAGATGTGTATAAGAGACAGTTTTTTTTTTTTTTTTTTTTTTTTT…TC
# Conditions: aptamer strand: ATP DNA aptamer (quencher-CACCTGGGGGAGTATTGCGGAGGAAGG + anchor), 100 nM annealed; ATP concentration: 500 uM; one replicate
# Outline: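 Clusters carrying Cy3-labelled switching strands on a modified Illumina MiSeq flow-cell were annealed to 100 nM quencher-labelled ATP aptamer and imaged in selection buffer. They were imaged again after 15 min with 500 uM ATP at 22 °C, over five buffer/ATP cycles with NaOH stripping and re-annealing in between. For each cluster, the fluorescence ratio is the summed Cy3 intensity of the target cycles divided by that of the buffer cycles, averaged per switch-domain sequence. Clusters outside 100-1000 RFU were left out.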
# 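Note: ATP exposure 15 min at 22 °C before imaging.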
sequence,measurement,value
CCAGATTGTG,switch fluorescence ratio,1.03
CGTGAGGTAT,switch fluorescence ratio,0.974
GTCAGAGTTT,switch fluorescence ratio,1.01
AGGGGAGTCA,switch fluorescence ratio,0.95
GAGGAGGTCC,switch fluorescence ratio,0.99
GCGAAGAGCA,switch fluorescence ratio,1.06
AAGATTACCC,switch fluorescence ratio,1.06
CGATTAGGTC,switch fluorescence ratio,0.943
GTTAGTTGTG,switch fluorescence ratio,0.992
TTTCATTTGA,switch fluorescence ratio,0.98
CTTAAGCGCC,switch fluorescence ratio,1
GTTACGCGAC,switch fluorescence ratio,1.07
CGTCAAACCT,switch fluorescence ratio,2.83
TGCTCTTCCG,switch fluorescence ratio,1.16
GTCAGGTTAC,switch fluorescence ratio,1.04
CGTTAATTGG,switch fluorescence ratio,0.992
ATTCCAACTC,switch fluorescence ratio,1.07
GCATTAATTT,switch fluorescence ratio,1.03
AGGGTTCTT,switch fluorescence ratio,1.04
AATGTGCGG,switch fluorescence ratio,0.954
CCTAGTGGTG,switch fluorescence ratio,1.15
TGCAAGTAAC,switch fluorescence ratio,1.57
ATTTTACCC,switch fluorescence ratio,1.01
TGATCGGGCC,switch fluorescence ratio,1.05
AATCGCGCAC,switch fluorescence ratio,1.4
TAACAAAATT,switch fluorescence ratio,0.985
GTAGACCCGT,switch fluorescence ratio,0.99
TGCGTGCGAA,switch fluorescence ratio,1.01
CGCTCGGAGC,switch fluorescence ratio,1.09
CTTACGTGGT,switch fluorescence ratio,1.05
TCGTGTGAGG,switch fluorescence ratio,0.974
TTGGTTGGCA,switch fluorescence ratio,1.01
TCGGGTTTTG,switch fluorescence ratio,0.994
ATGAAGAAGT,switch fluorescence ratio,0.989
CAGTTGG,switch fluorescence ratio,0.999
TCGGTAAGCA,switch fluorescence ratio,0.971
TAAGAATCCC,switch fluorescence ratio,1.03
TTGGAGCTGA,switch fluorescence ratio,1.56
GTATGTTAGC,switch fluorescence ratio,0.986
CTGTGTCATG,switch fluorescence ratio,0.94
TGTCCAGTTC,switch fluorescence ratio,1.08
TAAACAGTTT,switch fluorescence ratio,0.973
CGGTAAGAAC,switch fluorescence ratio,0.955
GTTCTAGTGG,switch fluorescence ratio,1.02
GACGCATCGT,switch fluorescence ratio,1.2
TAGTCGTGCG,switch fluorescence ratio,1.01
TGCAGTTGG,switch fluorescence ratio,1.14
CGAAGGTTGG,switch fluorescence ratio,0.981
CATGCCATTG,switch fluorescence ratio,1.02
GGGTTTCCTA,switch fluorescence ratio,0.966
CGAGCCGCCG,switch fluorescence ratio,0.987
CGATCCAGGT,switch fluorescence ratio,1.81
TTCCCAAAG,switch fluorescence ratio,1.13
ACAAGCGACG,switch fluorescence ratio,1.05
ACAATATAGG,switch fluorescence ratio,1.04
CGTTAGTATG,switch fluorescence ratio,0.957
ACTCGACAGT,switch fluorescence ratio,1.11
CGCAGTACCG,switch fluorescence ratio,1.48
ATAGAAAGGC,switch fluorescence ratio,1.04
GCCCATAGGC,switch fluorescence ratio,0.951
GAGAACGATA,switch fluorescence ratio,1.07
TCCACATTTC,switch fluorescence ratio,1.07
TCAAGTCGTA,switch fluorescence ratio,0.998
GGATGGGTAC,switch fluorescence ratio,1.05
TCATTAGTTA,switch fluorescence ratio,1
TCAGCTCTCA,switch fluorescence ratio,1.04
GTAGATGAAT,switch fluorescence ratio,1.02
GCAACGAGTC,switch fluorescence ratio,1.04
TAAATGCGAC,switch fluorescence ratio,1.09
CATCACAGG,switch fluorescence ratio,1.33
TGCGCAGGGC,switch fluorescence ratio,1.33
ATAGGGGGAC,switch fluorescence ratio,1
TGAAGATAGG,switch fluorescence ratio,0.961
TATTCATAAA,switch fluorescence ratio,0.986
CTCTTTAAG,switch fluorescence ratio,0.97
ACGAGGGGCC,switch fluorescence ratio,0.98
GGATGTTTGT,switch fluorescence ratio,0.992
TTAGGTCGTT,switch fluorescence ratio,0.993
TGACACTATA,switch fluorescence ratio,1.1
CGTGAATTTC,switch fluorescence ratio,1
CGGATGACTA,switch fluorescence ratio,0.985
GAGAATTAAG,switch fluorescence ratio,1.01
GGTCCACCCG,switch fluorescence ratio,1.01
TATATCCCGA,switch fluorescence ratio,1.07
AGATCCGCTA,switch fluorescence ratio,2.09
TCAAGCTTCA,switch fluorescence ratio,1.27
CACGTCTTGT,switch fluorescence ratio,0.974
AGAAATCTAC,switch fluorescence ratio,1.11
ATGGAATCTC,switch fluorescence ratio,1.03
TGAGCCACCT,switch fluorescence ratio,1.07
GGTGAGCGCT,switch fluorescence ratio,0.998
CCTGATGGGC,switch fluorescence ratio,1.09
TCTTTCTTGG,switch fluorescence ratio,1.37
TTAGATTAAC,switch fluorescence ratio,1.01
TAACGAATTT,switch fluorescence ratio,1.01
GATCAATGCC,switch fluorescence ratio,1
TCGGCTACGT,switch fluorescence ratio,0.937
TTGTGCAGGA,switch fluorescence ratio,1.05
TGTTAATTGC,switch fluorescence ratio,0.986
AAGAAAAAGT,switch fluorescence ratio,0.966
CGCCCCGGGT,switch fluorescence ratio,1.64
TCTTGAGGG,switch fluorescence ratio,1.03
GAGGCGATAT,switch fluorescence ratio,3.13
TATACGTACT,switch fluorescence ratio,1.8
CGTCGTAGC,switch fluorescence ratio,1.08
GCTCTCGGCA,switch fluorescence ratio,1.03
TTGCCCAATC,switch fluorescence ratio,1.45
AATGGGCATA,switch fluorescence ratio,0.985
TTCGGCACCC,switch fluorescence ratio,0.97
TACCGAACT,switch fluorescence ratio,1.3
AACTGACTG,switch fluorescence ratio,1.1
GGATATAGA,switch fluorescence ratio,1.03
CGGAACGAGT,switch fluorescence ratio,0.999
ATAAATAGAC,switch fluorescence ratio,1.11
ATCGTAGTAG,switch fluorescence ratio,0.99
TTCATAAACT,switch fluorescence ratio,1.07
AGCACAGACT,switch fluorescence ratio,1.31
TGGTCATTAT,switch fluorescence ratio,1.01
TTTGAAATGA,switch fluorescence ratio,1
AGTTATGGCT,switch fluorescence ratio,0.922
CGCTTACGG,switch fluorescence ratio,1.18
TACCATTACG,switch fluorescence ratio,1.19
TCACGGGACG,switch fluorescence ratio,1.03
TGATTTGGAA,switch fluorescence ratio,1.02
CGTTCTGTGT,switch fluorescence ratio,1.01
TTTGGCTTA,switch fluorescence ratio,0.977
ATGAGATATT,switch fluorescence ratio,0.975
CAATCTACTC,switch fluorescence ratio,1.08
AAGGTCGGTG,switch fluorescence ratio,0.964
CCCTCCGGGT,switch fluorescence ratio,2.36
AGTATGTTTA,switch fluorescence ratio,0.975
GCGGTAACTG,switch fluorescence ratio,1.16
ACATCTTGTA,switch fluorescence ratio,1.08
TCCAAACATC,switch fluorescence ratio,0.951
ATTGACTTTA,switch fluorescence ratio,1.07
TTTAAGCATA,switch fluorescence ratio,1.68
ACGCTTACAG,switch fluorescence ratio,1.23
AGCTGATGTA,switch fluorescence ratio,1.01
CGTGCCGATG,switch fluorescence ratio,1
ATTAGAGCGA,switch fluorescence ratio,1.04
AATTCTGACG,switch fluorescence ratio,1.02
TTACCCCAAC,switch fluorescence ratio,1.17
TTCTCGGTTG,switch fluorescence ratio,1.02
ACTCAAGGT,switch fluorescence ratio,1.01
AAGAATTCAG,switch fluorescence ratio,0.977
TCTAAATACC,switch fluorescence ratio,1.11
CCAGAGATG,switch fluorescence ratio,1.03
ATTGTATCTA,switch fluorescence ratio,0.989
TAATGTGAG,switch fluorescence ratio,1.01
CCGTACAGGT,switch fluorescence ratio,1.14
TTGAATGTGG,switch fluorescence ratio,0.976
GTTTGCAGTC,switch fluorescence ratio,1.03
GTTAAGCACC,switch fluorescence ratio,1.23
GAAGTAGGAT,switch fluorescence ratio,0.96
ATGATGCTGA,switch fluorescence ratio,1.02
AGCAGGAATC,switch fluorescence ratio,1.12
GATTGCTAAT,switch fluorescence ratio,0.971
